According to article PMC10668032:
Some of the results follow. At the low end of the ranking the order means little.

Molecular target: SIX1-Q177R homeodomain (UniProt Q15475)
Experiment: universal protein binding microarray
Settings: Universal all-10-mer PBM (8x60K, AMADID 030236), 300 nM GST-tagged protein, Alexa Fluor 488 anti-GST; buffer, salt, pH and temperature not stated; high values mean tight binding; most listed sequences are background and not binding sites; double strand, one strand shown

| Sequence | binding signal [E-score] |
| --- | --- |
| ATTTCTTG | -0.256 |
| ATATCCAC | 0.0168 |
| GGGTAATA | 0.264 |
| TTCTAAAA | -0.202 |
| CCAAACAA | -0.143 |
| AGTGGAGC | -0.086 |
| CTGGCGAC | -0.0203 |
| ACTCCGCG | 0.22 |
| CGATCGCA | 0.0214 |
| AGATCGCA | 0.00417 |
| AATCTGCA | -0.0776 |
| ACTCCCGG | 0.239 |
| AGCTACTC | -0.0761 |
| AACAGCAC | 0.0559 |
| CTCGATCA | -0.0116 |
| AAACGGGC | -0.0116 |
| CGACCGTA | 0.0687 |
| CCGCAACC | 0.136 |
| AGCCTAAG | -0.235 |
| CGGTCATA | -0.155 |
| AGTGAGAA | -0.156 |
| TGCGACCA | -0.151 |
| ACAGCGCG | -0.0663 |
| AAAAACGC | -0.129 |
| GGGGGTGA | 0.132 |

| Sequence | binding signal [E-score] |
| --- | --- |
| AAATCGAC | -0.165 |
| AAAATAGG | -0.139 |
| AGATATTG | -0.021 |
| AGTCTCTG | -0.203 |
| ACAATTGA | 0.101 |
| AGCAATTA | -0.219 |
| GGTAAGTA | 0.131 |
| TAGGCCCA | -0.229 |
| AAAGGTTC | -0.16 |
| ACCTACCC | 0.252 |
| AAGACAAG | 0.0174 |
| AACTTAGG | -0.16 |
| TATCCTAA | -0.08 |
| ACCTCGCT | -0.019 |
| CAGTAGAC | -0.0563 |
| GCACCTAA | 0.024 |
| ACACAGTC | -0.00681 |
| CCGACGGA | 0.112 |
| ACGTCTAC | -0.17 |
| AAGTACGT | 0.00622 |
| AGGCAGTA | -0.14 |
| CTGCGGCC | -0.13 |
| GAATTTCA | -0.436 |
| CAAGCCTA | -0.0739 |
| AAGCAATA | -0.0126 |

| Sequence | binding signal [E-score] |
| --- | --- |
| TACGTGGA | -0.168 |
| GGTTTGCA | -0.0722 |
| CGCCCCGA | 0.0506 |
| CCGATCAA | -0.149 |
| GACTAGAA | -0.0976 |
| GGATAGAA | -0.137 |
| TTCAACAA | -0.0323 |
| CGTTTATC | -0.193 |
| CTTTGGTA | -0.277 |
| ATCGAAAT | -0.25 |
| AACTAAGT | -0.121 |
| CATAGCAG | -0.089 |
| CCGGCAGG | 0.0675 |
| CCCCGACA | 0.324 |
| AAGCAGAC | -0.235 |
| ACATGATG | -0.171 |
| AATGAAGG | -0.0395 |
| AAACCACT | -0.256 |
| GTTCGAGA | 0.0673 |
| CGCTCAAA | -0.0999 |
| AGCCCCCT | -0.101 |
| GGCGTTAA | 0.133 |
| AGCCAAGA | -0.126 |
| CCCAGTGC | 0.148 |
| AGTGTTAC | 0.387 |

| Sequence | binding signal [E-score] |
| --- | --- |
| CCCCTCCC | 0.214 |
| CCAAATCG | -0.134 |
| CCGGACGC | 0.114 |
| CAGCGCCC | -0.262 |
| ATGGGTTA | -0.0404 |
| CGGCGTGC | -0.00421 |
| GAGATCAC | 0.0799 |
| GTCTCCCA | -0.0425 |
| CCTTAGTC | -0.0754 |
| AGTGGCGA | 0.0503 |
| CCGGTACA | 0.224 |
| ACCGGAGA | 0.138 |
| GTAACCAC | -0.0259 |
| ATTAATGG | -0.0793 |
| GAAAACTC | -0.149 |
| AATTCTGC | -0.163 |
| CGAACGCG | -0.0372 |
| CGACGGGA | 0.0349 |
| ACCGAACG | -0.00361 |
| CGCCGGAC | 0.0574 |
| AGCTGAAT | -0.187 |
| GTCATGGA | -0.0938 |
| ACCCCTTA | 0.228 |
| GAGGTAGC | -0.0637 |
| CGGGGGAA | 0.0166 |

| Sequence | binding signal [E-score] |
| --- | --- |
| CCTAGAAC | -0.0143 |
| CAGTTTAG | -0.0134 |
| ATCAACTA | -0.0013 |
| AACGAGCC | 0.0247 |
| GCACAACC | -0.072 |
| ATAGTGTC | 0.385 |
| CTGCACCA | 0.111 |
| CGAACGTC | -0.2 |
| AGAGTTGG | -0.156 |
| GTTACGGA | 0.164 |
| GCACGACA | 0.21 |
| AACTCTAG | -0.0303 |
| AGATACGC | 0.0126 |
| AGGTGCAA | 0.169 |
| CCAGAGTA | 0.132 |
| ACGTTAGC | -0.0505 |
| CTACCCTC | 0.117 |
| GGTGGCAC | 0.031 |
| CTCAGGTC | -0.182 |
| GGAAAGGA | 0.0716 |
| GGCAAAAC | -0.206 |
| ACTTGGAG | -0.0342 |
| CGATTACC | 0.0967 |
| ACACACAT | 0.201 |
| CACTGGAG | 0.182 |

| Sequence | binding signal [E-score] |
| --- | --- |
| ATGAGGTG | 0.304 |
| CCGTTCCC | -0.00604 |
| ACGTTCAC | -0.201 |
| GGTTCAAC | 0.0843 |
| CACCCCAA | 0.336 |
| CTAGCTTA | -0.222 |
| TGGTACAA | -0.0616 |
| CAGAGACC | -0.136 |
| CTCATCTA | -0.204 |
| TGCAGGAA | 0.00358 |
| AAGGTTGC | -0.0264 |
| ACAAATGG | -0.0491 |
| TGGGCGAA | -0.0954 |
| CCGGCTAA | 0.0286 |
| AATATCTG | -0.0578 |
| GCAGCTGA | -0.0176 |
| CGCCTCAA | -0.223 |
| CCTCGCCC | 0.212 |
| AAAGAGCA | -0.14 |
| AGCGTACT | -0.0284 |
| CTTAGACC | -0.118 |
| AGCATCCA | -0.317 |
| CACGCTCA | 0.155 |
| CTGTGTAA | 0.153 |
| ATGGTTAA | -0.113 |

| Sequence | binding signal [E-score] |
| --- | --- |
| GAACGAGC | 0.105 |
| ACGCCAAT | 0.0925 |
| GCCTTATA | -0.00245 |
| AATGCCAA | -0.153 |
| CCCGCGGC | 0.0154 |
| ACACTCTA | 0.367 |
| AAAATGTC | -0.286 |
| GGGGTGAA | 0.154 |
| CCAGGTCA | -0.0464 |
| CAGCAAAC | -0.104 |
| AAGTTGCT | -0.303 |
| ACTTCCCA | -0.0837 |
| GACGCATA | -0.251 |
| GAGAGAGC | -0.153 |
| AGATGTGA | -0.00781 |
| AGACGGGA | -0.0737 |
| GCCATAGA | -0.145 |
| TCGTGGCA | -0.169 |
| GCTCACAC | 0.276 |
| CCTCTAAA | -0.176 |
| CTCCATCC | -0.128 |
| GTCGACAC | 0.414 |
| CCGGCTCC | 0.153 |
| CCATACAG | 0.00526 |
| AGCCGGAT | -0.0554 |

| Sequence | binding signal [E-score] |
| --- | --- |
| CGCATGAG | -0.158 |
| ACGTGTCC | 0.347 |
| CACGTTCA | 0.158 |
| GGGATTAA | -0.0404 |
| CGATCCAC | 0.238 |
| AGACCGGG | -0.17 |
| CCTATTGA | -0.0193 |
| CGGTATAA | 0.0747 |
| CGGTGGCC | -0.16 |
| CTTTCTCA | -0.15 |
| CCTATAGG | -0.238 |
| AACCTTCA | -0.0173 |
| CTTGTAAC | 0.0801 |
| CGTCGACC | 0.0576 |
| AGTTCTTA | -0.278 |
| GCGAGGCC | -0.16 |
| GGGCTGAC | 0.0141 |
| AGACTTTA | -0.209 |
| GATCACAC | 0.324 |
| TATGCTGA | -0.237 |
| AAAAGAGA | -0.157 |
| GTCAGTTA | 0.0151 |
| CCGAAATA | -0.0825 |
| GCGTCACA | 0.0925 |
| ACTAGGTC | -0.096 |

| Sequence | binding signal [E-score] |
| --- | --- |
| TGTTAAAA | 0.129 |
| GTGTGTGA | 0.229 |
| ATCAATAG | -0.0116 |
| CAGAATTC | -0.228 |
| CTCTTGAC | 0.0339 |
| CTTTCCTA | -0.258 |
| ACTAGGAA | -0.0656 |
| AGCTGAGC | -0.0541 |
| AGCAATAC | -0.0178 |
| AGAGGCAC | -0.00975 |
| AAGTTCCT | -0.213 |
| GAATCCCC | 0.0877 |
| ATTAGCGC | -0.0939 |
| AGTATATG | 0.00625 |
| CCACGAGC | 0.00088 |
| CACGCAGC | 0.241 |
| AGTAAGAA | -0.164 |
| TCAGGGAA | -0.0904 |
| AGGCCGAT | -0.0773 |
